“And” between values parts separate entries of the source, which are not always exact repeats. Identical values can stand only once.
Assays:
Assay type in all cases: cell-based, human
Capan-1 = experiment: In vitro cytotoxicity and combination study, crystal violet; conditions: 72 hr of exposure
Excerpt: (§1) If CI near to 1 indicates additive effect (ADD), CI>1 indicates antagonism (ANT), CI<1 indicates synergism (SYN).

AsPc-1 = experiment: as above; conditions: 72 hr of exposure
Excerpt: as §1

Capan-2 = experiment: as above; conditions: 72 hr of exposure
Excerpt: as §1

L3.6pl = experiment: as above; conditions: 72 hr of exposure
Excerpt: as §1

L3.6pl cells = experiment: Western blot of signal transduction effects; parameters: key to PARP cleavage / Akt / p-Akt: NE represents no effect; conditions: IC25 doses
Method: Cell lysates ([…]) were fractionated by 8-15% SDS-PAGE and transferred on Immobilon-P nitrocellulose membranes (Schleicher & Schuell Inc., Keene, N.H.). Membranes were blocked for 2 hours in Tris-buffered saline (TBS) containing 3% bovine serum albumin. Monoclonal anti-HER-2/neu Ab (Oncogene Research Products, San Diego, Calif.), rabbit polyclonal anti-HER-1 Ab, rabbit polyclonal anti-TNFR-1 Ab, rabbit polyclonal anti-TNFR-2 Ab, rabbit polyclonal anti-phospho Akt Ab, rabbit polyclonal anti-Akt, and goat anti-β-actin Ab were used for immunoblotting. Goat anti-mouse/goat anti-rabbit or swain anti-goat antibodies conjugated with horseradish peroxidase (Bio-Rad Laboratories, Hercules, Calif.) were used to visualize immunoreactive proteins at a 1:4000 dilution using ECL detection reagent (Amersham Pharmacia Biotech Inc., Piscataway, N.J.).
HER-2/neu over-expression results in activation of different downstream pathways such as the Akt kinase pathway, which leads to cell proliferation and cell survival. […] The activation of Akt kinase was then assessed by Western blot analysis using antibodies to Akt and to phospho-Akt. […]
To determine whether caspase-8 and caspase-3 were activated in L3.6pl cells during 5-FU+scFv23/TNF-induced cell death, the cleavage of caspase-8, caspase-3, and its substrate poly (ADP)-ribose polymerase (PARP) was investigated.

[1] = system: HER-2-overexpressing SKBR-3/H cells; experiment: Western blot, DNA fragmentation, TUNEL: signal transduction effects; parameters: key to Akt / TRAF-2: NE represents no effect; conditions: 200 nM
Method: Apoptosis was detected by DNA fragmentation and TUNEL assay. […] After 24 hr and 48 hr, cells were washed with PBS, resuspended in a DNA extraction buffer containing 5 mM Tris-HCl, pH 8, 50 mM EDTA, 10 μg/ml RNAse, and 0.25% SDS and then incubated for 1 hr at 37° C. To remove protein, resuspended cell lysates were treated with 100 μg/ml proteinase K for 3 hr at 50° C. DNA was extracted using phenol and chloroform followed by ethanol precipitation. The genomic DNA was resuspended in Tris-EDTA (pH 8) and was fractionated by electrophoresis on a 1% agarose gel containing ethidium bromide.
The cells were washed with PBS, permeabilized (0.1% Triton X-100, 0.1% sodium citrate), and then fixed in 4% paraformaldehyde. Fixed cells were stained with in situ cell death detection kit (Roche). Cells undergoing apoptosis were identified by fluorescence microscopy.
After treatment, cells were washed twice with phosphate buffered saline (PBS) and lysed on ice for 20 min in 0.3 ml of lysis buffer (10 mM Tris-HCl, pH 8, 60 mM KCl, 1 mM EDTA, 1 mM DTT, 0.2% NP-40). Cell lysates (50 μg) were fractionated by 8-15% SDS-PAGE and electrophoretically transferred to Immobilon-P nitrocellulose membranes (Schleicher & Schuell Inc., Keene, N.H.). Membranes were blocked 2 hrs in Tris-buffered saline (TBS) containing 3% bovine serum albumin and then probed with various antibodies (monoclonal anti-HER-2/neu Ab, rabbit polyclonal anti-TNFR1 Ab, rabbit polyclonal anti-TNFR2 Ab, rabbit polyclonal anti-caspase-8 Ab, monoclonal anti-caspase-3 Ab, monoclonal anti-PARP Ab, rabbit polyclonal anti-TRADD Ab, rabbit polyclonal anti-TRAF2 Ab, rabbit polyclonal anti-IκB-α Ab, rabbit polyclonal anti-phospho Akt Ab, and rabbit polyclonal anti-Akt Ab). Goat anti-mouse/goat anti-rabbit or swain anti-goat antibodies conjugated with horseradish peroxidase (Bio-Rad Laboratories, Hercules, Calif.) were used to visualize immunoreactive proteins at a 1:4000 dilution using ECL detection reagent (Amersham Pharmacia Biotech Inc., Piscataway, N.J.).

SKBR-3-LP cells = experiment: Western blot of TNF receptor expression
Method: After treatment, cells were washed twice with phosphate buffered saline (PBS) and lysed on ice for 20 min in 0.3 ml of lysis buffer (10 mM Tris-HCl, pH 8, 60 mM KCl, 1 mM EDTA, 1 mM DTT, 0.2% NP-40). Cell lysates (50 μg) were fractionated by 8-15% SDS-PAGE and electrophoretically transferred to Immobilon-P nitrocellulose membranes (Schleicher & Schuell Inc., Keene, N.H.). […] Goat anti-mouse/goat anti-rabbit or swain anti-goat antibodies conjugated with horseradish peroxidase (Bio-Rad Laboratories, Hercules, Calif.) were used to visualize immunoreactive proteins at a 1:4000 dilution using ECL detection reagent (Amersham Pharmacia Biotech Inc., Piscataway, N.J.).

SKBR-3/H = experiment: In vitro cytotoxicity, XTT; conditions: 72 hr
Method: (§2) SKBR-3 cells were grown in McCoy's 5A modified medium, supplemented with 10% heat-inactivated fetal bovine serum (FBS), 2 mM L-glutamine, 100 units/ml penicillin and 100 μg/ml streptomycin.
(§3) After 72 hr, 50 μl of XTT labeling mixture (Roche) was added to each well, after which the cells incubated for another 4 hr. The spectrophotometric absorbance was measured at 450 nm using an ELISA reader (Bio-Tek Instruments, Inc., Winooski, Vt.).

SKBR-3/L = experiment: In vitro cytotoxicity, XTT; conditions: 72 hr
Method: as §2, §3

B1: scFv23/TNF: immunocytokine: TNF tethered to the single chain antibody scFv23 that recognizes the cell-surface domain of HER-2/neu (protein)
scFv: DVQLTQSPAILSASPGEKVTMTCRATPSVSYMHWYQQKPGSSPKPWIYTTSNLASGVPARFSGGGSGTSYSLTVSRVEAEDAATYYCQQWSRSPPTFGGGSKLEIKGSTSGSGKSSEGKGVQLQESGPEVVKPGGSMKISCKTSGYSFTGHTMNWVKQSHGKNLEWIGLINPYNGDTNYNQKFKGKATFTVDKSSSTAYMELLSLTSEDSAVYYCARRVTDWYFDVWGAGTTVTVSSGGGGS[letters of about 150 residues not shown]
IC50 (Capan-1): 700 nM | IC50 (AsPc-1): 500 nM | IC50 (Capan-2): 400 nM | IC50 (L3.6pl): 150 nM | Akt (L3.6pl cells): NE | Bcl-2 (L3.6pl cells): ↓ | inhibition of Bcl-2 expression levels (L3.6pl cells): 44% | p-Akt (L3.6pl cells): NE | Caspase-3 cleavage (L3.6pl cells; 48 hr): ↑ | Caspase-8 cleavage (L3.6pl cells; 48 hr): ↑ | PARP cleavage (L3.6pl cells; 48 hr): NE | Akt [1]: NE | Caspase-3 cleavage [1]: ↑ | Caspase-8 cleavage [1]: ↑ | DNA fragmentation [1]: ↑ | IκB-α [1]: ↓ | PARP cleavage [1]: ↑ | TRADD [1]: ↓ | TRAF-2 [1]: NE | p-Akt [1]: ↓ | TNF-R1 expression, increase compared to controls (SKBR-3-LP cells): 5 fold and 7.3 fold | IC50 (SKBR-3/H): 150 nM | IC50 (SKBR-3/L): 4 nM

Reference: patent publication US20060263368A1, “Targeted chimeric molecules for cancer therapy” (Research Development Foundation, priority 2005, published 2006)
